Source: patent US8415310B2, “Isoxazoline derivatives as antiparasitic agents” (AH USA 42 LLC, priority 2010, dated 2013)
Some of these results come from one statement about several compounds together.

Key:
Type in all cases: in vivo
[1] = system: Stomoxys calcitrans; experiment: Stable Fly (Stomoxys calcitrans) Topical Assay; conditions: 1 μL in acetone on thorax of fly (n=10); knockdown and mortality at 2 and 24 hours
[2] = system: Ctenocephalides felis; experiment: Flea (Ctenocephalides felis) Membrane Feed Assay-Adult; conditions: adult fleas fed on treated citrated bovine blood approximately 2 hours; knockdown and/or death at approximately 2 and 24 hours
[3] = system: fleas, ticks, flies, and or sea lice; experiment: at least one of the bio-assays (summary statement); conditions: assay not specified
[4] = system: Haematobia irritans; experiment: Horn Fly (Haematobia irritans) Feed Assay; conditions: horn flies fed on treated citrated bovine blood; knockdown and mortality at approximately 2 and 24 hours

`O=C(CC(F)(F)F)N1CC(F)(c2ccc(C3=NOC(c4cc(Cl)c(F)c(Cl)c4)(C(F)(F)F)C3)cc2)C1` (racemic) [Example 19, 1-(3-(4-(5-(3,5-dichloro-4-fluorophenyl)-5-(trifluoromethyl)-4,5-dihydroisoxazol-3-yl)phenyl)-3-fluoroazetidin-1-yl)-3,3,3-trifluoropropan-1-one] was tested, and the “lethal dose 90% (LD^90)” value [1] was ≤ 1 μg/fly, the “lethal dose 90% (LD^90)” value [2] was ≤ 0.3 µg/mL and the “ED^100, LD^100, LD^90, and/or ED^80 value within at least one of the bio-assays” value [3] was ≤ 0.003 µg/mL.

With `O=C(NC1CC1)N1CC(F)(c2ccc(C3=NOC(c4cc(Cl)c(Cl)c(C(F)(F)F)c4)(C(F)(F)F)C3)cc2)C1` (stereo not drawn) [Example 28, N-cyclopropyl-3-(4-(5-(3,4-dichloro-5-(trifluoromethyl)phenyl)-5-(trifluoromethyl)-4,5-dihydroisoxazol-3-yl)phenyl)-3-fluoroazetidine-1-carboxamide] the “lethal dose 90% (LD^90)” value [4] was ≤ 0.3 µg/mL, the “lethal dose 90% (LD^90)” value [1] was ≤ 0.1 μg/fly and the “lethal dose 90% (LD^90)” value [2] was ≤ 0.3 µg/mL.

`O=C(NC1CC1)N1CC(F)(c2ccc(C3=NOC(c4cc(C(F)(F)F)cc(C(F)(F)F)c4)(C(F)(F)F)C3)cc2)C1` (stereo not drawn) [Example 33, 3-(4-(5-(3,5-bis(trifluoromethyl)phenyl)-5-(trifluoromethyl)-4,5-dihydroisoxazol-3-yl)phenyl)-N-cyclopropyl-3-fluoroazetidine-1-carboxamide] was tested, and the “lethal dose 90% (LD^90)” value [4] was ≤ 0.3 µg/mL, the “lethal dose 90% (LD^90)” value [1] was ≤ 0.1 μg/fly and the “lethal dose 90% (LD^90)” value [2] was ≤ 0.3 µg/mL.

In the case of `CCNC(=O)N1CC(F)(c2ccc(C3=NOC(c4cc(Cl)cc(C(F)(F)F)c4)(C(F)(F)F)C3)cc2)C1` (stereo not drawn) [Example 36, 3-(4-(5-(3-chloro-5-(trifluoromethyl)phenyl)-5-(trifluoromethyl)-4,5-dihydroisoxazol-3-yl)phenyl)-N-ethyl-3-fluoroazetidine-1-carboxamide], the “lethal dose 90% (LD^90)” value [4] is reported as ≤ 0.3 µg/mL, the “lethal dose 90% (LD^90)” value [1] is reported as ≤ 0.1 μg/fly and the “lethal dose 90% (LD^90)” value [2] is reported as ≤ 0.1 µg/mL.

`O=C(NC1CC1)N1CC(F)(c2ccc(C3=NOC(c4cc(Cl)cc(C(F)(F)F)c4)(C(F)(F)F)C3)cc2)C1` (stereo not drawn) [Example 37, 3-(4-(5-(3-chloro-5-(trifluoromethyl)phenyl)-5-(trifluoromethyl)-4,5-dihydroisoxazol-3-yl)phenyl)-N-cyclopropyl-3-fluoroazetidine-1-carboxamide] was tested, and the “lethal dose 90% (LD^90)” value [4] was ≤ 1 µg/mL, the “lethal dose 90% (LD^90)” value [1] was ≤ 0.1 μg/fly and the “lethal dose 90% (LD^90)” value [2] was ≤ 1 µg/mL.

In the case of `CCCC(=O)N1CC(F)(c2ccc(C3=NOC(c4cc(Cl)cc(Cl)c4)(C(F)(F)F)C3)cc2)C1` (stereo not drawn) [Example 46, 1-(3-(4-(5-(3,5-Dichlorophenyl)-5-(trifluoromethyl)-4,5-dihydroisoxazol-3-yl)phenyl)-3-fluoroazetidin-1-yl)butan-1-one], the “lethal dose 90% (LD^90)” value [4] is reported as ≤ 3 µg/mL, the “lethal dose 90% (LD^90)” value [1] is reported as ≤ 1 μg/fly and the “lethal dose 90% (LD^90)” value [2] is reported as ≤ 1 µg/mL.

For `N#Cc1cc(C2=NOC(c3cc(Cl)c(Cl)c(Cl)c3)(C(F)(F)F)C2)ccc1C1(F)CN(C(=O)C2CC2)C1` (stereo not drawn) [Example 84, 2-(1-(cyclopropanecarbonyl)-3-fluoroazetidin-3-yl)-5-(5-(3,4,5-trichlorophenyl)-5-(trifluoromethyl)-4,5-dihydroisoxazol-3-yl)benzonitrile], the “lethal dose 90% (LD^90)” value [4] was ≤ 1 µg/mL, the “lethal dose 90% (LD^90)” value [1] was ≤ 1 μg/fly and the “lethal dose 90% (LD^90)” value [2] was ≤ 0.3 µg/mL.

In the case of `CC(C)C(=O)N1CC(F)(c2ccc(C3=NOC(c4cc(Cl)c(Cl)c(Cl)c4)(C(F)(F)F)C3)cc2)C1` (stereo not drawn) [Example 98, 3-[4-(3-fluoro-1-isobutyrylazetidin-3-yl)phenyl]-5-(3,4,5-trichlorophenyl)-5-(trifluoromethyl)-4,5-dihydroisoxazole], the “lethal dose 90% (LD^90)” value [4] is reported as ≤ 3 µg/mL, the “lethal dose 90% (LD^90)” value [1] is reported as ≤ 0.1 μg/fly and the “lethal dose 90% (LD^90)” value [2] is reported as ≤ 1 µg/mL.
